Measurements reported in paper PMC6602471.
The list shows a part of the results. At the low end of the ranking, values are background and their order means little.

The sequences below were run against T1, ELK1 (UniProt P19419) (assay: custom PBM). Conditions: custom protein-binding microarray; buffer, salt, pH and temperature not stated; high values mean tight binding; double strand, one strand shown.
T1 sequence: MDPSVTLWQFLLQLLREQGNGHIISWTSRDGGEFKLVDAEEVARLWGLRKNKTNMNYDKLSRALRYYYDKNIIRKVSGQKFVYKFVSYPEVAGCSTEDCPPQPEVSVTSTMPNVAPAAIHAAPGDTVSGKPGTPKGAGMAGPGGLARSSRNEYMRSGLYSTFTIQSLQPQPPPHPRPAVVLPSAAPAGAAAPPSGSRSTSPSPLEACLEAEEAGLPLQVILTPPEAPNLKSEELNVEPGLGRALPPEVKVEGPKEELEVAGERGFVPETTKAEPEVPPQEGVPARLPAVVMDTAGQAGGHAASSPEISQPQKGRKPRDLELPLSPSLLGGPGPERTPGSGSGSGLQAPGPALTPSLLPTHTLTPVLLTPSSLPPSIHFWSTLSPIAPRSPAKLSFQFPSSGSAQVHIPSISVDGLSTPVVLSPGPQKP

Sequence | binding signal (log fluorescence intensity)
CACAATTTTTACAGTAATGAAGCACGCGTAACTCCTGTCTTGATTCGCTTGACGCTGCTG | 8.77
GCTGCTGCGGTTCATACCCCACCGGATGTGACCCCGGTCTTGATTCGCTTGACGCTGCTG | 10.3
CTGGGATTTGACCCAACTCTGCCACGTGGGTCGTTTGTCTTGATTCGCTTGACGCTGCTG | 9.02
CTGGGACTTGACCCAACTCTGCCTCGTGGGTCGTTTGTCTTGATTCGCTTGACGCTGCTG | 8.82
GTGTATAGGATCCCAACCAACACACGTGTTAAAATGGTCTTGATTCGCTTGACGCTGCTG | 8.81
TGTCGGGTAAAGGAATGTAGATCACGTGAATGAAAAGTCTTGATTCGCTTGACGCTGCTG | 8.9
GGAAAAAGGCCCAGGGTAACACCGGTAGTGGGCTTAGTCTTGATTCGCTTGACGCTGCTG | 9.4
CAGCAAAGGACTTCTTCCCTGAAGCAATTGATAACCGTCTTGATTCGCTTGACGCTGCTG | 8.93
TCCGGCTACCAGCTCCTCCCACTTCAGGCCTTGTAGGTCTTGATTCGCTTGACGCTGCTG | 8.94
CGGAAGTGTCGTAAACGTCGGATATCCGGTTTTTCTGTCTTGATTCGCTTGACGCTGCTG | 12.5
GCTGCTGCGATGCATACCCCACCGGATGTGACCCCGGTCTTGATTCGCTTGACGCTGCTG | 10.3
TACTGACTTAGATATGCGAATGCACATGAATAGACCGTCTTGATTCGCTTGACGCTGCTG | 8.89
CAGCATAGGACTTCTTCCCTGTAGCAATTGATAACCGTCTTGATTCGCTTGACGCTGCTG | 8.93
TACTGACTTATATATGCGAATGCAAATGAATAGACCGTCTTGATTCGCTTGACGCTGCTG | 8.75
CGGAAGTGTCGTAAACGTCGGTTATCCGGTTCTTCTGTCTTGATTCGCTTGACGCTGCTG | 10.1
AGGAAGTGTCGTAAACGTCGGATATCCGGTTCTTCTGTCTTGATTCGCTTGACGCTGCTG | 12.3
TACTGACTTATATATGCGAATGCACATGAGTAGACCGTCTTGATTCGCTTGACGCTGCTG | 8.82
GATTAATTTCTGCGCTTATTCGCACGTGCCATAACAGTCTTGATTCGCTTGACGCTGCTG | 8.83
GGAAAAAGGCCCAGGGTAACACCGGAAGTGGGCTTAGTCTTGATTCGCTTGACGCTGCTG | 11
TGTCGGGTAAGGGAATGTAGATCATGTGAATGAAAAGTCTTGATTCGCTTGACGCTGCTG | 8.94
GTGTATAGGATCCCCTCCAACACACGTGTTAAAATGGTCTTGATTCGCTTGACGCTGCTG | 8.91

Sequence | binding signal (log fluorescence intensity)
GATTAATTTCTGCCCTTATTTGCACGTGCCATAACAGTCTTGATTCGCTTGACGCTGCTG | 8.84
TACTGACTTATATTTGCGAATGCACATGAATAGACCGTCTTGATTCGCTTGACGCTGCTG | 8.81
GCTGCTGCGGTGCATACGCCACCGGATGTGACCCCGGTCTTGATTCGCTTGACGCTGCTG | 10.4
GTGTATAGGATCCCATGCAACACACGTGTTAAAATGGTCTTGATTCGCTTGACGCTGCTG | 8.85
TACCGACTTATATATGCGAATGCACATGAATAGACCGTCTTGATTCGCTTGACGCTGCTG | 8.82
GATTAATTTCTGACCTTATTCGCACGTGCCATAACAGTCTTGATTCGCTTGACGCTGCTG | 8.96
TGTCGGGTAAGGGAATGAAGATCACGTGAATGAAAAGTCTTGATTCGCTTGACGCTGCTG | 8.86
TCCGGCTACCAGCTCCACCCACTTGAGGCCTTGTAGGTCTTGATTCGCTTGACGCTGCTG | 8.87
TGTCGGGTAAGGGAATGTAGATCACGTGAATGAAATGTCTTGATTCGCTTGACGCTGCTG | 8.86
GCTGCTGCGGTGCATACCCCACCTGATGTGACCCCGGTCTTGATTCGCTTGACGCTGCTG | 8.92
TAAAGGGAAGACTGTTGTGGTAGTTCCGGGTATTAAGTCTTGATTCGCTTGACGCTGCTG | 11
TACTGACTTATATATGCGAATGCCCATGAATAGACCGTCTTGATTCGCTTGACGCTGCTG | 8.84
CTGGGACTTGACCCAACTCCGCCACGTGGGTCGTTTGTCTTGATTCGCTTGACGCTGCTG | 9.02
GCTGCTGCGGTGCATACCCCACCGCATGTGACCCCGGTCTTGATTCGCTTGACGCTGCTG | 8.99
CTGGGACTGGACCCAACTCTGCCACGTGGGTCGTTTGTCTTGATTCGCTTGACGCTGCTG | 8.71
GATTAATTTCTGCCCTTATTCGCACGTGCCATAAAAGTCTTGATTCGCTTGACGCTGCTG | 8.8
TACTGAATTATATATGCGAATGCACATGAATAGACCGTCTTGATTCGCTTGACGCTGCTG | 8.87
CTGGGACTTGACCCAACTCTGCCACGTGGTTCGTTTGTCTTGATTCGCTTGACGCTGCTG | 8.8
CTGGGACTTGACCCAACTTTGCCACGTGGGTCGTTTGTCTTGATTCGCTTGACGCTGCTG | 8.98
TAAAGGGAAGACGGTTTTGGTAGTTCCGGGTATTAAGTCTTGATTCGCTTGACGCTGCTG | 11.4
